In publication PMC4752459:
No constants are given. Whether binding was seen depends on the method and setting. In cells and extracts the contact can be indirect. Some binding calls cover weakened binding; strength is not graded here. Each block holds one molecule with its values, some of them ahead of it.

Chains of the proteins cited; added tags and fusions are not shown.
UniProt P38634: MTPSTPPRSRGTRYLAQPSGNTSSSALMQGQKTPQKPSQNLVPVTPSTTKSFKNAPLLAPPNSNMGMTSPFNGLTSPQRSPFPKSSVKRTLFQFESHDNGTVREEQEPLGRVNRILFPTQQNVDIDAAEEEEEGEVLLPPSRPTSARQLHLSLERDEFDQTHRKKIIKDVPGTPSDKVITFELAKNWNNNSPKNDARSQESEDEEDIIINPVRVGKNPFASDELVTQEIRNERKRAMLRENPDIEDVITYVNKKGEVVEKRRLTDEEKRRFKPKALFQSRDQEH
UniProt Q08972: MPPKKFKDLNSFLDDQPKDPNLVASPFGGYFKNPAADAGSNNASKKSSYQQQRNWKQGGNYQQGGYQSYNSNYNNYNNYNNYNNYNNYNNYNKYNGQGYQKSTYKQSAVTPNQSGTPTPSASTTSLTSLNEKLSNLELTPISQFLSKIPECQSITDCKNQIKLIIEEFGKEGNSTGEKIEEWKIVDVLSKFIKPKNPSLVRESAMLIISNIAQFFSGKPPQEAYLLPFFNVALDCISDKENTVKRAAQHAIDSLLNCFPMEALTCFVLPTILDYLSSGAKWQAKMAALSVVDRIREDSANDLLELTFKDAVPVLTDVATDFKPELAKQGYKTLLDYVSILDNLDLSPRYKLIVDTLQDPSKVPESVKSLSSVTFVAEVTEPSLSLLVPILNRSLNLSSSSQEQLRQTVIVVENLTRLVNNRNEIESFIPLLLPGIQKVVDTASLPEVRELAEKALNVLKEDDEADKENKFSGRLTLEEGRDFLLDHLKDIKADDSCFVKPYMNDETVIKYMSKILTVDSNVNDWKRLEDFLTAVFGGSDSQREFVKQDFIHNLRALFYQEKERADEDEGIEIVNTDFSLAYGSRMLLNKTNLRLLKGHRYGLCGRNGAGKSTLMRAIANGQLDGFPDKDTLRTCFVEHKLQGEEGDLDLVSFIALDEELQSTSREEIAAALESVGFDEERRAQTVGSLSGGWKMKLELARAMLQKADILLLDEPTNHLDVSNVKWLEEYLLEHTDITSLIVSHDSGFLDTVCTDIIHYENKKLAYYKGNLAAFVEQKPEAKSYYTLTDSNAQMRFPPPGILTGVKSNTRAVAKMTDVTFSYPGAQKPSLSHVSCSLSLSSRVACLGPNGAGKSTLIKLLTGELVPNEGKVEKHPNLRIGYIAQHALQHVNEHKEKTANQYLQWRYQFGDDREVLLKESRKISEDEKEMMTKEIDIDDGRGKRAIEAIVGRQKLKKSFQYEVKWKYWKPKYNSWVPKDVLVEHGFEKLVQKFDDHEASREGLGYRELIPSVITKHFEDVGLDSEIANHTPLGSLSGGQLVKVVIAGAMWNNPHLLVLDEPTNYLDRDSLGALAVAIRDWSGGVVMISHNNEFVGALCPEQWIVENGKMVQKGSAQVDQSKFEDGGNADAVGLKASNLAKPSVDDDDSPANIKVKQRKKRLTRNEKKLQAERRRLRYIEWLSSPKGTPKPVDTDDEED
UniProt P32598: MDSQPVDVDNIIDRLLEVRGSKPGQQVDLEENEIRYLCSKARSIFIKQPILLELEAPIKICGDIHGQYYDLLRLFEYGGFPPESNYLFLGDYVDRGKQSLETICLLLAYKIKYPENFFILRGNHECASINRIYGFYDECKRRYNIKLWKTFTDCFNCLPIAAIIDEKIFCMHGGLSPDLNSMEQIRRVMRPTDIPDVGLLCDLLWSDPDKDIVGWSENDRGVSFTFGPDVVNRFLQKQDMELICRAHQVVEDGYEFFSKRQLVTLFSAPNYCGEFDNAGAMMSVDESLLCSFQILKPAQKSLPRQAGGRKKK

Target: T1, Shs1-CCG (S. cerevisiae) (UniProt Q07657)
T1 sequence: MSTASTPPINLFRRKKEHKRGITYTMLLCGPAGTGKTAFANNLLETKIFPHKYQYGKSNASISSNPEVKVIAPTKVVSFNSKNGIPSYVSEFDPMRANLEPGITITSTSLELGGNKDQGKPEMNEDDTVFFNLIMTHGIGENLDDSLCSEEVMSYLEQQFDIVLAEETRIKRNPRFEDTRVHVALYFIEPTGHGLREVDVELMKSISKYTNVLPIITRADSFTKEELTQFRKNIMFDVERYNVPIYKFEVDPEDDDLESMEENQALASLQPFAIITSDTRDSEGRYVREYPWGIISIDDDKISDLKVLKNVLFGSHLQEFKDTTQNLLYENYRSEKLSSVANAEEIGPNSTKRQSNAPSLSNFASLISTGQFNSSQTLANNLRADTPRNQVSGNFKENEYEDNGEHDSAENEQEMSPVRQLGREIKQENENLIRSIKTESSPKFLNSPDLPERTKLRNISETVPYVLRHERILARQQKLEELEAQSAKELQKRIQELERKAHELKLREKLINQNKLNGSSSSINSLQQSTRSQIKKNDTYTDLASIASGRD
Assay: split reporter; steady-state SPLIFF (split-ubiquitin, mCherry-Cub-GFP): diploid cells with Shs1-CCG and a Nub fusion, 100 μM Cu2+, GFP/mCherry ratio at the bud neck; strong > 70%, weak > 30%, below 30% CCG to CC conversion non-interacting

binding: no binding
Molecule: Nub-Sic1 (from UniProt P38634 1-284)

binding: binds
Molecule: Nub-New1 (from UniProt Q08972 1-1196)

binding: no binding
Molecule: Nub-Glc7 (from UniProt P32598 1-312)

binding: binds
B1: Nub-Cse1 (protein, UniProt P33307 1-960)
chain: MSDLETVAKFLAESVIASTAKTSERNLRQLETQDGFGLTLLHVIASTNLPLSTRLAGALFFKNFIKRKWVDENGNHLLPANNVELIKKEIVPLMISLPNNLQVQIGEAISSIADSDFPDRWPTLLSDLASRLSNDDMVTNKGVLTVAHSIFKRWRPLFRSDELFLEIKLVLDVFTAPFLNLLKTVDEQITANENNKASLNILFDVLLVLIKLYYDFNCQDIPEFFEDNIQVGMGIFHKYLSYSNPLLEDPDETEHASVLIKVKSSIQELVQLYTTRYEDVFGPMINEFIQITWNLLTSISNQPKYDILVSKSLSFLTAVTRIPKYFEIFNNESAMNNITEQIILPNVTLREEDVELFEDDPIEYIRRDLEGSDTDTRRRACTDFLKELKEKNEVLVTNIFLAHMKGFVDQYMSDPSKNWKFKDLYIYLFTALAINGNITNAGVSSTNNLLNVVDFFTKEIAPDLTSNNIPHIILRVDAIKYIYTFRNQLTKAQLIELMPILATFLQTDEYVVYTYAAITIEKILTIRESNTSPAFIFHKEDISNSTEILLKNLIALILKHGSSPEKLAENEFLMRSIFRVLQTSEDSIQPLFPQLLAQFIEIVTIMAKNPSNPRFTHYTFESIGAILNYTQRQNLPLLVDSMMPTFLTVFSEDIQEFIPYVFQIIAFVVEQSATIPESIKPLAQPLLAPNVWELKGNIPAVTRLLKSFIKTDSSIFPDLVPVLGIFQRLIASKAYEVHGFDLLEHIMLLIDMNRLRPYIKQIAVLLLQRLQNSKTERYVKKLTVFFGLISNKLGSDFLIHFIDEVQDGLFQQIWGNFIITTLPTIGNLLDRKIALIGVLNMVINGQFFQSKYPTLISSTMNSIIETASSQSIANLKNDYVDLDNLEEISTFGSHFSKLVSISEKPFDPLPEIDVNNGVRLYVAEALNKYNAISGNTFLNTILPQLTQENQVKLNQLLVGN

binding: binds weakly
B2: Nub-Sfb3 (protein, UniProt P38810 1-929)
chain: MSQQNILAASVSALSLDESTVHTGGASSKKSRRPHRAYHNFSSGTVPTLGNSPYTTPQLNQQDGFQQPQAFTPKQFGGFNNGSGSVMSTPVMVSQERFGASEASSPYGQSMLDMTAPQPTSHIVPTQRFEDQAQYLQRSFETCRDSVPPLPTTQFYCVDQGSCDPHLMSLSMYNIPESEHLRAATKLPLGLTIQPFSTLTPNDAEVPTIPLPMDGTPLRCRRCRAYANPKFQFTYDSSVICNICRVKMQVPGEHFAPMGPNGQRSDLNEKSELLHGTVDFLVPSIYNAIQEKELLPLHYVFLIDVSLLANENGSSLAMVEGVRSCIEYISDFQPNCEVAIIVYDNKLRFFNLRPDLDNAQEYIVSELDDVFLPFYNGLFVKPGNSMKIINDTLIKISGYISTDKYSHVPQVCYGSALQAAKLALDTVTGGQGGKIICSLNSLPTIGNGNLSLKRDNAHIAHVKCDNGFYKKLASDFLKSYISLDLYVTNAGFIDMATVGHPVEMTSGILKYYPHFQQETDAFTLVNDMVTNVSNIVGYQALLKVRCSTGLSVEQYYCDSSDNTDHDPIIPVLTRDTTLDVLLKYDSKIKTGTDVHFQTALLYTDIDGVRKVRSINTSGAVSNNIREIFKFINQNPVMRIMIKDVIKTLGDCDFVKIRRLIDDKMVEILTQYRGLVSSNSSTQLILPDSIKTLPAYMLAFEKSELMKPNAQSTRGNERIYDLLKYDSLNSAQLCYKLYPQIVPFHVLLEETDLTFYDANDKLLQINSSSINNLSVRASHSNFINGGCYLIFQGDTIYLWFNENTNRMLLQDLLSVDESLPVSQISLFSGTLPETGTSINQKASNVIKNWQQVVNKSSLPLVLLRPNVDQYYSNVMSQLLCEDKTVNRIESYDNYLVIMHKKIQEKLQKDDFIKVSTAATHENIHQKFVQF

binding: binds
B3: Nub-Sla2 (protein, UniProt P33338 1-968)
chain: MSRIDSDLQKALKKACSVEETAPKRKHVRACIVYTWDHQSSKAVFTTLKTLPLANDEVQLFKMLIVLHKIIQEGHPSALAEAIRDRDWIRSLGRVHSGGSSYSKLIREYVRYLVLKLDFHAHHRGFNNGTFEYEEYVSLVSVSDPDEGYETILDLMSLQDSLDEFSQIIFASIQSERRNTECKISALIPLIAESYGIYKFITSMLRAMHRQLNDAEGDAALQPLKERYELQHARLFEFYADCSSVKYLTTLVTIPKLPVDAPDVFLINDVDESKEIKFKKREPSVTPARTPARTPTPTPPVVAEPAISPRPVSQRTTSTPTGYLQTMPTGATTGMMIPTATGAANAIFPQATAQMQPDFWANQQAQFANEQNRLEQERVQQLQQQQAQQELFQQQLQKAQQDMMNMQLQQQNQHQNDLIALTNQYEKDQALLQQYDQRVQQLESEITTMDSTASKQLANKDEQLTALQDQLDVWERKYESLAKLYSQLRQEHLNLLPRFKKLQLKVNSAQESIQKKEQLEHKLKQKDLQMAELVKDRDRARLELERSINNAEADSAAATAAAETMTQDKMNPILDAILESGINTIQESVYNLDSPLSWSGPLTPPTFLLSLLESTSENATEFATSFNNLIVDGLAHGDQTEVIHCVSDFSTSMATLVTNSKAYAVTTLPQEQSDQILTLVKRCAREAQYFFEDLMSENLNQVGDEEKTDIVINANVDMQEKLQELSLAIEPLLNIQSVKSNKETNPHSELVATADKIVKSSEHLRVDVPKPLLSLALMIIDAVVALVKAAIQCQNEIATTTSIPLNQFYLKNSRWTEGLISAAKAVAGATNVLITTASKLITSEDNENTSPEQFIVASKEVAASTIQLVAASRVKTSIHSKAQDKLEHCSKDVTDACRSLGNHVMGMIEDDHSTSQQQQPLDFTSEHTLKTAEMEQQVEILKLEQSLSNARKRLGEIRRHAYYNQDDD

binding: binds weakly
B4: Nub-Rlp7 (protein, UniProt P40693 1-322)
chain: MSSTQDSKAQTLNSNPEILLRKRRNADRTRIERQELAKKKREEQIKKKRSNKNKFVRAESIVAKTLATSREKERIKRVSILEDKKAKNETQHIASGKDFILKITEKANGAEENSVDLEETEEEEDDGLIREKTTYDGKPALLFIVRVRGPLAVNIPNKAFKILSLLRLVETNTGVFVKLTKNVYPLLKVIAPYVVIGKPSLSSIRSLIQKRGRIIYKGENEAEPHEIVLNDNNIVEEQLGDHGIICVEDIIHEIATMGESFSVCNFFLQPFKLNREVSGFGSLNRLRKIKQREAESRTRQFSNAATAPVIEVDIDSLLAKLN

binding: binds weakly
B5: Nub-Vps1 (protein, UniProt P21576 1-704)
chain: MDEHLISTINKLQDALAPLGGGSQSPIDLPQITVVGSQSSGKSSVLENIVGRDFLPRGTGIVTRRPLVLQLINRRPKKSEHAKVNQTANELIDLNINDDDKKKDESGKHQNEGQSEDNKEEWGEFLHLPGKKFYNFDEIRKEIVKETDKVTGANSGISSVPINLRIYSPHVLTLTLVDLPGLTKVPVGDQPPDIERQIKDMLLKYISKPNAIILSVNAANTDLANSDGLKLAREVDPEGTRTIGVLTKVDLMDQGTDVIDILAGRVIPLRYGYIPVINRGQKDIEHKKTIREALENERKFFENHPSYSSKAHYCGTPYLAKKLNSILLHHIRQTLPEIKAKIEATLKKYQNELINLGPETMDSASSVVLSMITDFSNEYAGILDGEAKELSSQELSGGARISYVFHETFKNGVDSLDPFDQIKDSDIRTIMYNSSGSAPSLFVGTEAFEVLVKQQIRRFEEPSLRLVTLVFDELVRMLKQIISQPKYSRYPALREAISNQFIQFLKDATIPTNEFVVDIIKAEQTYINTAHPDLLKGSQAMVMVEEKLHPRQVAVDPKTGKPLPTQPSSSKAPVMEEKSGFFGGFFSTKNKKKLAALESPPPVLKATGQMTERETMETEVIKLLISSYFSIVKRTIADIIPKALMLKLIVKSKTDIQKVLLEKLYGKQDIEELTKENDITIQRRKECKKMVEILRNASQIVSSV

binding: binds
B6: Nub-Bni5 (protein, UniProt P53890 1-448)
chain: MGLDQDKIKKRLSQIEIDINQMNQMIDENLQLVEPAEDEAVEDNVKDTGVVDAVKVAETALFSGNDGADSNPGDSAQVEEHKTAQVHIPTENEANKSTDDPSQLSVTQPFIAKEQITHTAIAIGDSYNSFVANSAGNEKAKDSCTENKEDGTVNIDQNRGEADVEIIENNDDEWEDEKSDVEEGRVDKGTEENSEIESFKSPMPQNNTLGGENKLDAELVLDKFSSANKDLDIQPQTIVVGGDNEYNHESSRLADQTPHDDNSENCPNRSGGSTPLDSQTKIFIPKKNSKEDGTNINHFNSDGDGQKKMANFETRRPTNPFRVISVSSNSNSRNGSRKSSLNKYDSPVSSPITSASELGSIAKLEKRHDYLSMKCIKLQKEIDYLNKMNAQGSLSMEDGKRLHRAVVKLQEYLDKKTKEKYEVGVLLSRHLRKQIDRGENGQFWIGTK

binding: binds weakly
B7: Nub-Nop4 (protein, UniProt P37838 1-685)
chain: MEETIENVEVPSSNVSKQNDDGLDMKTLFVRSIPQDVTDEQLADFFSNFAPIKHAVVVKDTNKRSRGFGFVSFAVEDDTKEALAKARKTKFNGHILRVDIAKRRDRSKKTSEVVEKSTPESSEKITGQNNEDEDDADGEDSMLKGKPKLIIRNMPWSCRDPVKLKKIFGRYGTVVEATIPRKRDGKLCGFAFVTMKKISNCRIALENTKDLKIDGRKVAVDFAVQKNRWEDYKKAQPEMNDKDDNESGNEDAEENHDDEEDENEEEDRQVDQASKNKESKRKAQNKREDFSVFVRNVPYDATEESLAPHFSKFGSVKYALPVIDKSTGLAKGTAFVAFKDQYTYNECIKNAPAAGSTSLLIGDDVMPEYVYEGRVLSITPTLVREDAGRMAEKNAAKRKEALGKAPGEKDRRNLYLLNEGRVVEGSKMADLLTNTDMEIREKSYKLRVEQLKKNPSLHLSMTRLAIRNLPRAMNDKALKALARKAVVEFATEVKNKERHPLSKEEIIRSTKEKYKFMGPDEIEAQKKKDKKSGVVKQAKVIMEVKGSTAGRSRGYGFVEFRDHKNALMGLRWLNCHAVTSDEILEGLNDDEKKQVDNDLGKGRRLCVEFAIENSNVVKRRREQLKQARTKRTRPDNEDTGDVGESENKKPKKEEATTPTNPDDKKMGDDIKRIIGFKRKRKHAKK
